PubChem BioAssay (NCATS)
Values joined by “and” are separate entries in the source; they are usually repeats but may differ in a detail not shown here. Identical values can stand only once. This list was built around the results that the source calls inconclusive (neither active nor inactive); the mix of calls is not that of the screen. Potencies beside an inconclusive call are fits to weak or partial responses and may not hold up. Active and inactive are the calls of the source. The call rests on the fitted dose curve; in most records, active means well fitted curve in the direction sought with a large enough effect; inconclusive means small, poorly fitted or top-dose-only effect, or another doubt; inactive means no such curve, though single readings can be large; an effect the other way counts as inactive or inconclusive.
Potency means the concentration at half of the fitted maximal effect; tags describe the fitted curve by direction and shape.

Assay: Viability qHTS for spleen associated tyrosine kinase inhibitor (SYKi) drug resistant MV4-11 cells (AID 1963824); further: nearly all actives have a fitted effect of over 35% in size
Settings: SYKi-resistant MV4-11 viability, CellTiter-Glo, 72 h; series mostly up to 45 µM
Method in brief: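 SYK inhibitor-resistant MV4-11 AML cells, 500 per well, added to predispensed compounds and incubated 72 hr at 37 C, 5% CO2. Viability measured by CellTiter-Glo luminescence after 10 min at room temperature.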
For `CCC(CN)=C(c1ccccc1)c1ccccc1`, the Potency was inconclusive: 26.6 µM [cytotoxic, single point]. With `CCCCCCCC/C=C/C(=O)O` the Potency was inconclusive: 23.7 µM [cytotoxic, single point]. In the case of `CC(=O)N[C@@H](CCC(=O)O)C(=O)O`, the Potency is reported as “inactive”. With `O=c1[nH]c(=O)n([C@H]2C[C@H](O)[C@@H](CO)O2)cc1F` the Potency was inconclusive: 0.0596 µM [cytotoxic, full curve]. In the case of `CCCNC(=O)c1cn2ncnc(Nc3cc(C(=O)NC4CC4)ccc3C)c2c1C`, the Potency is reported as inconclusive: 7.42 µM [cytotoxic, full curve]. For `C=CC(=O)N[C@H]1CN(c2nc(Nc3cn(C)nc3OC)c3ncn(C)c3n2)C[C@@H]1F`, the Potency was active: 18.6 µM. With `CC1(C)[C@@H]2CC[C@@]1(C)C(=O)C2` the Potency was “inactive”. With `CCCCCCCCCCCCCC[N+](C)(C)C` the Potency was active: 1.33 µM. For `Cc1cc(CC(=O)O)c(C)n1-c1ccc(Cl)cc1`, the Potency was inconclusive: 11.9 µM [cytotoxic, partial curve]. In the case of `NC(=O)CC[C@@H]1NC(=O)[C@H](Cc2ccccc2)NC(=O)[C@H](Cc2ccc(O)cc2)NC(=O)CCSSC[C@@H](C(=O)N2CCC[C@H]2C(=O)N[C@@H](CCCN=C(N)N)C(=O)NCC(N)=O)NC(=O)[C@H](CC(N)=O)NC1=O`, the Potency is reported as inconclusive: 0.0009 µM. In the case of `C[C@@]12C(=O)OC(=O)[C@]1(C)[C@H]1CC[C@@H]2O1`, the Potency is reported as active: 2.63 µM.

Assay: Cellular viability qHTS for adrenocortical cancer (ACC) cell line NCI-H295R (AID 1963990); further: nearly all actives have a fitted effect of over 60% in size
Settings: CellTiter-Glo ATP luminescence, 48 h; series mostly up to 46.1 µM
Method in brief: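 Compound titrations (up to 46 uM final) are applied to NCI-H295R cultures for 48 h at 37C. Viable cell number is estimated by CellTiter-Glo signal, normalised to DMSO and doxorubicin controls.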
For `NNc1nnc(NN)c2ccccc12`, the Potency was inconclusive: 6.51 µM [rising, single point]. For `Cc1[nH]c2ccccc2c1CCNCc1ccc(/C=C/C(=O)NO)cc1`, the Potency was active: 0.112 µM. For `Cc1[nH]cnc1CN1CCc2c(c3ccccc3n2C)C1=O`, the Potency was “inactive”. With `CC1(C)S[C@@H]2[C@H](NC(=O)C(C(=O)O)c3ccccc3)C(=O)N2[C@H]1C(=O)O` (stereo partly specified) the Potency was inconclusive: 6.51 µM [cytotoxic, partial curve, poor fit]. For `NS(=O)(=O)c1ccc(Cl)c(S(N)(=O)=O)c1`, the Potency was “inactive”. With `NC(=NCCCCCCN=C(N)/N=C(\N)Nc1ccc(Cl)cc1)/N=C(\N)Nc1ccc(Cl)cc1` the Potency was inconclusive: 25.9 µM [cytotoxic, single point]. With `CC(C)c1c(-c2ccccc2)nc2c(C#N)c[nH]n2c1=O` the Potency was inconclusive: 35.5 µM [cytotoxic, single point]. For `CC(CC1c2ccccc2CCc2ccccc21)CN(C)C` (stereo unspecified), the Potency was inconclusive: 29.1 µM [cytotoxic, single point]. In the case of `N#C[C@@H]1C[C@@H]2C[C@@H]2N1C(=O)[C@@H](N)C12CC3CC(CC(O)(C3)C1)C2`, the Potency is reported as “inactive”. In the case of `C=CCc1ccccc1OCC(O)CNC(C)C` (stereo unspecified), the Potency is reported as inconclusive: 6.51 µM [rising, partial curve, poor fit]. With `Cn1ncc(Cl)c1-c1cc(C(=O)N[C@H](CN)Cc2cccc(F)c2)sc1Cl` the Potency was inconclusive: 35.5 µM [cytotoxic, single point]. For `O=C1S/C(=C\c2ccc(OCc3cccc(B(O)O)c3)cc2)C(=O)N1Cc1ccc(F)cc1`, the Potency was inconclusive: 5.62 µM [cytotoxic, partial curve, poor fit]. With `CONC(=O)Nc1ccc(-c2sc3c(c2CN(C)C)c(=O)n(-c2ccc(OC)nn2)c(=O)n3Cc2c(F)cccc2F)cc1` the Potency was inconclusive: 35.5 µM [cytotoxic, single point]. With `Cn1ncc(NC(=O)c2nc(-c3c(F)cccc3F)sc2N)c1N1CC[C@@H](N)[C@H](F)CC1` the Potency was inconclusive: 28.2 µM [cytotoxic, partial curve, poor fit]. For `COc1ccccc1OC(=O)Oc1ccccc1OC`, the Potency was inconclusive: 25.9 µM [cytotoxic, single point]. In the case of `CC(C)Oc1ccc(-c2nn([C@@H](C)c3oc4ccc(F)cc4c(=O)c3-c3cccc(F)c3)c3ncnc(N)c23)cc1F`, the Potency is reported as “inactive”. In the case of `Nc1ccc(S(=O)(=O)Nc2ccccn2)cc1`, the Potency is reported as “inactive”. With `C=CCNc1nc(NCC=C)nc(N2CCN(C(c3ccc(F)cc3)c3ccc(F)cc3)CC2)n1` the Potency was inconclusive: 25.9 µM [cytotoxic, partial curve]. In the case of `CC(O)(P(=O)(O)O)P(=O)(O)O`, the Potency is reported as “inactive”. With `O=C(Nc1ccc([N+](=O)[O-])cc1)Nc1ccc([N+](=O)[O-])cc1` the Potency was inconclusive: 3.66 µM [cytotoxic, single point]. In the case of `COCCOc1cnc2ccn([C@H](C)c3nnc4c(F)cc(-c5cnn(C)c5)cn34)c(=O)c2c1`, the Potency is reported as “inactive”. In the case of `COc1ccc(/C(C)=C/C(=O)O)c(OC)c1`, the Potency is reported as “inactive”. For `CC1=C(c2ccc(O)cc2)[C@H](c2ccc(OCCN3CCCCC3)cc2)Oc2cc(O)ccc21`, the Potency was inconclusive: 35.5 µM [cytotoxic, single point]. In the case of `Cc1ccc2c(n1)Oc1ccc(C(C)C(=O)OCC(=O)N(C)C)cc1C2` (stereo unspecified), the Potency is reported as inconclusive: 32.6 µM [cytotoxic, single point] and inconclusive: 20.6 µM [cytotoxic, single point]. In the case of `CCOC(=O)O[C@]1(C(=O)OCCl)CC[C@H]2[C@@H]3CCC4=CC(=O)C=C[C@]4(C)[C@H]3[C@@H](O)C[C@@]21C`, the Potency is reported as “inactive and inconclusive: 3.16 µM [cytotoxic, single point]”. In the case of `O=C1[C@@H]2[C@H]3CC[C@H](C3)[C@@H]2C(=O)N1CCCCN1CCN(c2ncccn2)CC1`, the Potency is reported as “inactive”. In the case of `CCOC(=O)c1ccc(O)cc1`, the Potency is reported as “inactive”. With `CC(=O)O[C@]1(C(C)=O)CC[C@H]2[C@@H]3C=C(Cl)C4=CC(=O)[C@@H]5C[C@@H]5[C@]4(C)[C@H]3CC[C@@]21C` the Potency was “inactive and inconclusive: 31.6 µM [cytotoxic, single point]”. For `CN(C)CC/C=C1/c2ccccc2COc2ccc(CC(=O)O)cc21`, the Potency was “inactive”. With `CCC(CN)=C(c1ccccc1)c1ccccc1` the Potency was inconclusive: 10.3 µM [cytotoxic, partial curve]. With `CCCCCCCC/C=C/C(=O)O` the Potency was inconclusive: 10.3 µM [cytotoxic, partial curve, poor fit]. In the case of `CC(=O)N[C@@H](CCC(=O)O)C(=O)O`, the Potency is reported as “inactive”. In the case of `O=c1[nH]c(=O)n([C@H]2C[C@H](O)[C@@H](CO)O2)cc1F`, the Potency is reported as inconclusive: 14.6 µM [cytotoxic, partial curve] and inconclusive: 6.31 µM [cytotoxic, partial curve, poor fit]. In the case of `CCCNC(=O)c1cn2ncnc(Nc3cc(C(=O)NC4CC4)ccc3C)c2c1C`, the Potency is reported as inconclusive: 35.5 µM [cytotoxic, single point]. For `C=CC(=O)N[C@H]1CN(c2nc(Nc3cn(C)nc3OC)c3ncn(C)c3n2)C[C@@H]1F`, the Potency was inconclusive: 1.26 µM [cytotoxic, full curve, poor fit]. In the case of `CC1(C)[C@@H]2CC[C@@]1(C)C(=O)C2`, the Potency is reported as “inactive”. With `CCCCCCCCCCCCCC[N+](C)(C)C` the Potency was inconclusive: 29.1 µM [cytotoxic, single point]. For `Cc1cc(CC(=O)O)c(C)n1-c1ccc(Cl)cc1`, the Potency was inconclusive: 29.1 µM [cytotoxic, partial curve, poor fit]. With `NC(=O)CC[C@@H]1NC(=O)[C@H](Cc2ccccc2)NC(=O)[C@H](Cc2ccc(O)cc2)NC(=O)CCSSC[C@@H](C(=O)N2CCC[C@H]2C(=O)N[C@@H](CCCN=C(N)N)C(=O)NCC(N)=O)NC(=O)[C@H](CC(N)=O)NC1=O` the Potency was “inactive”. For `C[C@@]12C(=O)OC(=O)[C@]1(C)[C@H]1CC[C@@H]2O1`, the Potency was active: 3.98 µM.
